# Data: the supplement of paper PMC8728848
# The other results are listed elsewhere or left out.
# Columns and labels:
# Test in all cases: glycan array binding signal (z-score within array); higher = stronger binding
# Conditions in all cases: glycan notation: IUPAC condensed, linker removed
# [1] = target: Neu5Ac(a2-3)Gal(b1-4)GlcNAc(b1-2)Man(a1-3)[Neu5Ac(a2-6)Gal(b1-4)GlcNAc(b1-2)Man(a1-6)]Man(b1-4)GlcNAc(b1-4)GlcNAc
# In short: (§1)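 Glycan array data were curated from 3228 arrays in the Consortium for Functional Glycomics database and kept only where the protein sequence was available. Glycan names were converted to IUPAC-condensed notation, and columns mapping to the same glycan were averaged. The binding signal is a within-array Z-score, averaged across arrays of the same protein sequence at different concentrations or buffers and across linkers. Negative Z-scores can be read as non-binding.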
# [2] = target: Neu5Ac(a2-3)Gal(b1-4)GlcNAc(b1-2)[Neu5Ac(a2-3)Gal(b1-4)GlcNAc(b1-4)]Man(a1-3)[GlcNAc(b1-4)][Neu5Ac(a2-3)Gal(b1-4)GlcNAc(b1-2)[Neu5Ac(a2-3)Gal(b1-4)GlcNAc(b1-6)]Man(a1-6)]Man(b1-4)GlcNAc(b1-4)GlcNAc
# In short: as §1
# [3] = target: Neu5Ac(a2-3)Gal(b1-4)GlcNAc(b1-2)[Neu5Ac(a2-3)Gal(b1-4)GlcNAc(b1-4)]Man(a1-3)[GlcNAc(b1-4)][Neu5Ac(a2-3)Gal(b1-4)GlcNAc(b1-4)Man(a1-6)]Man(b1-4)GlcNAc(b1-4)GlcNAc
# In short: as §1
# [4] = target: Neu5Ac(a2-3)Gal(b1-4)GlcNAc(b1-2)[Neu5Ac(a2-3)Gal(b1-4)GlcNAc(b1-6)]Man(a1-6)[Neu5Ac(a2-3)Gal(b1-4)GlcNAc(b1-2)Man(a1-3)][GlcNAc(b1-4)]Man(b1-4)GlcNAc(b1-4)GlcNAc
# In short: as §1
# [5] = target: Neu5Ac(a2-3)Gal(b1-4)GlcNAc(b1-3)Gal
# In short: as §1
# [6] = target: Neu5Ac(a2-3)Gal(b1-4)GlcNAc(b1-3)Gal(b1-3)GlcNAc
# In short: as §1
# [7] = target: Neu5Ac(a2-3)Gal(b1-4)GlcNAc(b1-3)Gal(b1-4)GlcNAc
# In short: as §1
# [8] = target: Neu5Ac(a2-3)Gal(b1-4)GlcNAc(b1-3)Gal(b1-4)GlcNAc(b1-2)Man(a1-3)[Neu5Ac(a2-3)Gal(b1-4)GlcNAc(b1-3)Gal(b1-4)GlcNAc(b1-2)Man(a1-6)]Man(b1-4)GlcNAc(b1-4)GlcNAc
# In short: as §1
# [9] = target: Neu5Ac(a2-3)Gal(b1-4)GlcNAc(b1-3)Gal(b1-4)GlcNAc(b1-3)Gal(b1-4)GlcNAc
# In short: as §1
# [10] = target: Neu5Ac(a2-3)Gal(b1-4)GlcNAc(b1-3)Gal(b1-4)GlcNAc(b1-3)Gal(b1-4)GlcNAc(b1-2)Man(a1-3)[Neu5Ac(a2-3)Gal(b1-4)GlcNAc(b1-3)Gal(b1-4)GlcNAc(b1-3)Gal(b1-4)GlcNAc(b1-2)Man(a1-6)]GalNAc
# In short: as §1
# [11] = target: Neu5Ac(a2-3)Gal(b1-4)GlcNAc(b1-3)Gal(b1-4)GlcNAc(b1-3)GalNAc
# In short: as §1
# [12] = target: Neu5Ac(a2-3)Gal(b1-4)GlcNAc(b1-3)Gal(b1-4)GlcNAc(b1-3)[Neu5Ac(a2-3)Gal(b1-4)GlcNAc(b1-3)Gal(b1-4)GlcNAc(b1-6)]GalNAc
# In short: as §1
# [13] = target: Neu5Ac(a2-3)Gal(b1-4)GlcNAc(b1-3)Gal(b1-4)GlcNAc(b1-6)[Gal(b1-3)]GalNAc
# In short: as §1
# [14] = target: Neu5Ac(a2-3)Gal(b1-4)GlcNAc(b1-3)Gal(b1-4)[Fuc(a1-3)]GlcNAc
# In short: as §1
# [15] = target: Neu5Ac(a2-3)Gal(b1-4)GlcNAc(b1-3)GalNAc
# In short: as §1
# [16] = target: Neu5Ac(a2-3)Gal(b1-4)GlcNAc(b1-3)[Neu5Ac(a2-3)Gal(b1-4)GlcNAc(b1-6)]GalNAc
# In short: as §1
# [17] = target: Neu5Ac(a2-3)Gal(b1-4)GlcNAc(b1-6)GalNAc
# In short: as §1
# [18] = target: Neu5Ac(a2-3)Gal(b1-4)GlcNAc(b1-6)[Gal(b1-3)]GalNAc
# In short: as §1
# [19] = target: Neu5Ac(a2-3)Gal(b1-4)GlcNAc(b1-6)[Neu5Ac(a2-3)Gal(b1-3)]GalNAc
# In short: as §1
# [20] = target: Neu5Ac(a2-3)Gal(b1-4)GlcNAc6S
# In short: as §1
# [21] = target: Neu5Ac(a2-3)Gal(b1-4)[Fuc(a1-3)]GlcNAc
# In short: as §1
# [22] = target: Neu5Ac(a2-3)Gal(b1-4)[Fuc(a1-3)]GlcNAc(b1-2)Man
# In short: as §1
# [23] = target: Neu5Ac(a2-3)Gal(b1-4)[Fuc(a1-3)]GlcNAc(b1-3)Gal
# In short: as §1
# [24] = target: Neu5Ac(a2-3)Gal(b1-4)[Fuc(a1-3)]GlcNAc(b1-3)Gal(b1-4)GlcNAc
# In short: as §1
# [25] = target: Neu5Ac(a2-3)Gal(b1-4)[Fuc(a1-3)]GlcNAc(b1-3)Gal(b1-4)[Fuc(a1-3)]GlcNAc(b1-3)Gal(b1-4)[Fuc(a1-3)]GlcNAc
# In short: as §1
# [26] = target: Neu5Ac(a2-3)Gal(b1-4)[Fuc(a1-3)]GlcNAc(b1-3)GalNAc
# In short: as §1
# [27] = target: Neu5Ac(a2-3)Gal(b1-4)[Fuc(a1-3)]GlcNAc(b1-6)[Gal(b1-3)]GalNAc
# In short: as §1
# [28] = target: Neu5Ac(a2-3)Gal(b1-4)[Fuc(a1-3)]GlcNAc(b1-6)[Neu5Ac(a2-3)Gal(b1-3)]GalNAc
# In short: as §1
# [29] = target: Neu5Ac(a2-3)Gal(b1-4)[Fuc(a1-3)]GlcNAc6S
# In short: as §1
# [30] = target: Neu5Ac(a2-3)Gal6S(b1-4)GlcNAc
# In short: as §1
# [31] = target: Neu5Ac(a2-3)Gal6S(b1-4)[Fuc(a1-3)]GlcNAc
# In short: as §1
# [32] = target: Neu5Ac(a2-3)GalNAc
# In short: as §1
# [33] = target: Neu5Ac(a2-3)GalNAc(b1-4)GlcNAc
# In short: as §1
# [34] = target: Neu5Ac(a2-3)[GalNAc(b1-4)]Gal(b1-4)Glc
# In short: as §1
# [35] = target: Neu5Ac(a2-3)[GalNAc(b1-4)]Gal(b1-4)GlcNAc
# In short: as §1
# [36] = target: Neu5Ac(a2-3)[GalNAc(b1-4)]Gal(b1-4)GlcNAc(b1-3)GalNAc
# In short: as §1
# [37] = target: Neu5Ac(a2-3)[Neu5Ac(a2-6)]GalNAc
# In short: as §1
binder,measurement,setting,value
"Apa (Mycobacterium tuberculosis), Rv1860 (protein) MHQVDPNLTRRKGRLAALAIAAMASASLVTVAVPATANADPEPAPPVPTTAASPPSTAAAPPAPATPVAPPPPAAANTPNAQPGDPNAAPPPADPNAPPPPVIAPNAPQPVRIDNPVGGFSFALPAGWVESDAAHFDYGSALLSKTTGDPPFPGQPPPVANDTRIVLGRLDQKLYASAEATDSKAAARLGSDMGEFYMPYPGTRINQETVSLDANGVSGSASYYEVKFSDPSKPNGQIWTGVIGSPAANAPDAGPPQRWFVVWLGTANNPVDKGAAKALAESIRPLVAPPPAPAPAPAEPAPAPAPAGEVAPTPTTPTPQRTLPA",glycan array binding signal (z-score),[1],-0.452
same,glycan array binding signal (z-score),[2],-0.443
same,glycan array binding signal (z-score),[3],-0.558
same,glycan array binding signal (z-score),[4],-0.538
same,glycan array binding signal (z-score),[5],-0.531
same,glycan array binding signal (z-score),[6],-0.635
same,glycan array binding signal (z-score),[7],-0.562
same,glycan array binding signal (z-score),[8],-0.312
same,glycan array binding signal (z-score),[9],-0.629
same,glycan array binding signal (z-score),[10],-0.042
same,glycan array binding signal (z-score),[11],-0.254
same,glycan array binding signal (z-score),[12],-0.438
same,glycan array binding signal (z-score),[13],-0.316
same,glycan array binding signal (z-score),[14],-0.539
same,glycan array binding signal (z-score),[15],-0.438
same,glycan array binding signal (z-score),[16],-0.436
same,glycan array binding signal (z-score),[17],0.015
same,glycan array binding signal (z-score),[18],-0.35
same,glycan array binding signal (z-score),[19],-0.334
same,glycan array binding signal (z-score),[20],-0.5
same,glycan array binding signal (z-score),[21],-0.292
same,glycan array binding signal (z-score),[22],1.62
same,glycan array binding signal (z-score),[23],-0.442
same,glycan array binding signal (z-score),[24],0.673
same,glycan array binding signal (z-score),[25],-0.14
same,glycan array binding signal (z-score),[26],0.227
same,glycan array binding signal (z-score),[27],0.242
same,glycan array binding signal (z-score),[28],0.026
same,glycan array binding signal (z-score),[29],-0.341
same,glycan array binding signal (z-score),[30],-0.642
same,glycan array binding signal (z-score),[31],-0.633
same,glycan array binding signal (z-score),[32],-0.153
same,glycan array binding signal (z-score),[33],-0.318
same,glycan array binding signal (z-score),[34],-0.249
same,glycan array binding signal (z-score),[35],-0.38
same,glycan array binding signal (z-score),[36],0.002
same,glycan array binding signal (z-score),[37],-0.487
